Measurements published in paper PMC10502657.
No constants are given. Whether binding was seen depends on the method and setting. In cells and extracts the contact can be indirect. Some entries that bind do so weakly or less than the wild type. Where a sequence is shown, tags or fusion partners need not be part of it.

Columns and labels:
Flag–MLF2 = molecular target: T1, Flag–MLF2 (UniProt Q15773); test: co-IP; HEK293T cells transfected with tagged proteins, lysed 24 h later (MG132 20 µM for 6 h before lysis); IP buffer 50 mM Tris-HCl pH 7.4, 150 mM NaCl, 1.5 mM MgCl2, 1 mM EDTA, 0.5% NP-40, 0.5% Triton X-100, 10% glycerol; western blot
T1 sequence: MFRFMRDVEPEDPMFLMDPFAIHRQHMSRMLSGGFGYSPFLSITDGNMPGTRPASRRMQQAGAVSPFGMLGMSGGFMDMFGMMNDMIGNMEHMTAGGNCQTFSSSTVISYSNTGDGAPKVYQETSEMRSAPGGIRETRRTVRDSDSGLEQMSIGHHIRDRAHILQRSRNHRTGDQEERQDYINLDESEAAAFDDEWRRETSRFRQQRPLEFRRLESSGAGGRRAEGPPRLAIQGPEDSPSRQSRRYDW

[1] = molecular target: T2, MLF2, exogenously expressed (tag not shown) (UniProt Q15773); test: co-IP; immunoprecipitation assays with deletion mutants of MLF2 and of USP7 (Figure S3C–E); cells and tags not shown
T2 sequence: T1 sequence

Substance | binding (Flag–MLF2) | binding [1]
GFP–p53 (from UniProt P04637 1-393) | binds | –
HA–USP7 (from UniProt Q93009 1-1102) (enzyme) | binds | –
USP7 (aa 1–208) (from UniProt Q93009 1-208) (domain or fragment) | – | binds
USP7 (aa 506–1102) (from UniProt Q93009 506-1102) (domain or fragment) | – | binds
